# Experimental data reported in the supplement of paper PMC4466236.
# Over roughly 33,000 sequences, “E-score (dimensionless, -0.5 to 0.5)” has its median near -0.058; the highest 2% begin near 0.35. Some of the results follow.
# Test system: MvaT
# Assay: PBM 8-mer E-score (mean of HK and ME arrays) (E-score (dimensionless, -0.5 to 0.5)); higher = stronger relative binding preference; most listed sequences are background and not binding sites
# In short: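 Full-length P. aeruginosa MvaT, with glutathione S-transferase fused to its N-terminus (cloned into pTH6838 by isothermal assembly), was tested by protein binding microarray using a previously described protocol. Two universal double-stranded 60-mer arrays (ME and HK) were used, each with a constant 25-mer primer region and a variable 35-mer region covering all 8-mers. The rank-based 8-mer E-score (-0.5 to 0.5) is the mean of the two arrays, parsed with a custom Python script.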
row,Sequence,PBM 8-mer E-score
1,ATTTTAAA,0.383
2,GTGTAAAA,0.129
3,AAGTAGGT,0.0927
4,CCGGGGGC,-0.284
5,ACAGAGCT,-0.177
6,CCGTATAA,0.125
7,CAGTCAGA,-0.127
8,TACCTTAA,0.236
9,ACGTTTTA,0.211
10,GACTATAC,0.151
11,CACCCCAA,-0.081
12,CCCGTTTA,0.0119
13,ACAAATAG,0.268
14,AAATCGTT,0.126
15,CCCTGCCA,-0.157
16,CCAGGCAG,-0.282
17,CGGTCGAA,-0.142
18,GCATTAGC,-0.0717
19,CAGTCTGA,-0.00904
20,GGACCTCC,-0.299
21,ATTCTCCC,-0.0642
22,GAGAAATA,0.334
23,AATAAGGC,0.301
24,ATCCAGAA,0.0751
25,GGGTACCA,-0.266

row,Sequence,PBM 8-mer E-score
1,ATCGCCTA,-0.119
2,ACAGAGTA,0.045
3,ATTAAGAA,0.282
4,CGGATTGC,-0.109
5,CACTTCAC,0.154
6,AGCGCAAC,0.076
7,TCAAACAA,0.175
8,ATGTTCTG,0.0527
9,CCATTCCG,-0.17
10,AAGTCAAG,-0.0341
11,CTTTGAAC,0.0886
12,ACAAGGCC,-0.125
13,AGCTGGAT,-0.0794
14,CTTATACA,0.229
15,CTGATTTA,0.228
16,CTCAAATA,0.251
17,GGTAAGAC,0.00204
18,GAGTGTAC,-0.0425
19,GTAGCACA,0.0725
20,ACCAATCC,-0.00343
21,AAACTGGT,-0.00279
22,CCTTGAAC,-0.19
23,GACACTGA,-0.19
24,GGGGTTAA,0.068
25,CGGACGGA,-0.207

row,Sequence,PBM 8-mer E-score
1,AGAGACAT,0.0513
2,AGTGACGA,-0.182
3,AGAGTTTA,0.188
4,CACGTCCG,-0.232
5,GATCATCC,-0.141
6,ACAATTAG,0.315
7,CCCGCACC,-0.236
8,AACCGGAT,0.0184
9,ATGTTCCG,0.0172
10,ATCACGCG,-0.0746
11,AAGGGCCC,-0.316
12,AAAAGGTG,-0.12
13,ATACTAGG,0.104
14,CCCAATCG,-0.244
15,ACCAGCGT,-0.258
16,CACAAGCA,0.0126
17,GGGCAACA,0.076
18,GATGATAA,0.132
19,ATTCAAGG,-0.0546
20,AACTGAGA,-0.0526
21,CCCCCGAG,-0.207
22,AGGCCCGG,-0.282
23,AGAAGTTA,0.279
24,AGCGTACA,-0.0425
25,ATCATGGG,-0.198

row,Sequence,PBM 8-mer E-score
1,ACTGCGTC,-0.216
2,ATCGTCGG,-0.078
3,ACTCGTTC,-0.131
4,CTTGCGAA,0.077
5,ACGGAAAT,0.193
6,GAACGCAA,-0.0427
7,ACCCAGGT,-0.117
8,AGGTTAGG,-0.145
9,AACAAAAA,0.239
10,TAGCACCA,-0.207
11,GCGAGTCA,-0.112
12,CGCAACTC,0.0568
13,CAAGGCTA,-0.232
14,ACATCCTA,-0.0176
15,CTCGCGCC,-0.261
16,AGCGACTA,-0.106
17,AATGCGTA,0.118
18,GTGCGTGA,-0.0451
19,ACTCTTTA,0.22
20,CATGCAAC,0.143
21,AAAAGACC,-0.0443
22,CCAGCGAC,-0.0525
23,CTAATAAC,0.326
24,AGTATAGG,0.0335
25,CTTGCATC,-0.0339

row,Sequence,PBM 8-mer E-score
1,ATGCCGCC,-0.131
2,AAACCATC,0.0503
3,AACCGACG,-0.000494
4,CCCCAATA,0.0237
5,GAGTTGGC,-0.063
6,CCGGAAGA,-0.2
7,AGTAAGGC,-0.102
8,ACCACGCA,-0.162
9,CATACGCC,-0.119
10,AGTGACTC,-0.215
11,AGTTCTAA,0.195
12,AGGACGTG,-0.0594
13,GTTCTCGA,-0.0824
14,AATTAATT,0.469
15,CTAGTGTC,-0.0643
16,CTGGATAA,0.125
17,ACTTATGA,0.248
18,GCTTTTTA,0.202
19,ACGTGAGA,-0.0259
20,AAAGGTCC,-0.197
21,ACCTTGGA,-0.184
22,AGAGAGTG,-0.0094
23,GTTCGATA,0.111
24,TAAGTCGA,0.0582
25,ATCCGGGC,-0.207

row,Sequence,PBM 8-mer E-score
1,AATCCCCG,-0.164
2,AGGCCCCC,-0.324
3,ACACCTGG,-0.191
4,CGATGGGA,-0.232
5,CCAGGGAA,-0.264
6,GTGTCACA,0.0862
7,TGGGTTAA,0.271
8,ACGTTACC,0.0225
9,GGTCAATA,0.0589
10,ATGGTTCG,-0.129
11,GAAGGTCC,-0.296
12,CACTGTGG,-0.229
13,GCACATCA,-0.0667
14,TAGACTAA,0.172
15,AGGAGATG,-0.137
16,GCAGCAGC,-0.158
17,ACGTACAG,-0.0779
18,ACGACGCG,0.00215
19,GTTCCAGA,-0.0607
20,ATTCAATC,0.128
21,CGTTGATA,0.233
22,GGGCCAAA,-0.175
23,AACACGCG,-0.00712
24,AGCGTAAA,0.129
25,ATGCTAAA,0.062

row,Sequence,PBM 8-mer E-score
1,CAAAAATC,0.0508
2,CCACAGCA,0.0585
3,ACCGCAAT,0.0257
4,CATCTTGC,0.00473
5,GGAGCACA,-0.109
6,AGCGCTCC,-0.312
7,ATGGTGTA,0.227
8,GGTGCGTA,-0.221
9,AAAATTTG,0.221
10,CATATGCC,0.21
11,GCGGATCA,-0.185
12,TCTCACCA,-0.0395
13,AGATAACT,0.173
14,ATTTGCCA,0.182
15,CGACAGGC,-0.265
16,ACGGGTAG,-0.17
17,ACCTCCAG,-0.269
18,GTAATTCA,0.191
19,GCCATGAC,-0.228
20,AAAAGCGT,0.0434
21,AAGCTATC,-0.0888
22,ATGTACGA,0.0878
